Test results reported in article PMC5892938.
Some of the results follow. At the low end of the ranking the order means little.

What follows are sequences tested against GST-SBP-SLBP (stem-loop binding protein) (UniProt Q14493) (assay: targeted RNA Bind-n-Seq). Details: RBNS binding buffer: 25 mM Tris pH 7.5, 150 mM KCl, 3 mM MgCl2, 0.1% Tween, 0.5 mg/mL BSA, 1 mM DTT; 27 nM protein, 750 pM RNA pool; temperature not stated; high values mean tight binding.
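Note: DESeq read counts versus GST-SBP nonspecific binding control pulldown.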

Sequence	binding signal (log2 fold change)
GGUCACGUCUCAAUCAACUCUUUCUCCAGGGAAAUCCCUGGCUAAUUCAACAGCUCGCAGUCAAG	0.097
GGUCACGUCUCAAUCAACUCAUCCUCAGGAGUUUGCUCCUGUUUUCUCAACAGCUCGCAGUCAAG	-0.0589
GGUCACGUCUCAAUCAACUCUUCUUCCAGGGAAAACCCUGGCUAACUCAACAGCUCGCAGUCAAG	-0.194
GGUCACGUCUCAAUCAACUCGUCUUCAGGAGUUUUCUCCUGCUAAUUCAACAGCUCGCAGUCAAG	0.0799
GGUCACGUCUCAAUCAACUCAUCUUCAGGAGUUUUCUCCUGUAUAUUCAACAGCUCGCAGUCAAG	-0.0228
GGUCACGUCUCAAUCAACUCAGUCUCCAGGGAAAUCCCUGGCUUAUUCAACAGCUCGCAGUCAAG	0.0312
GGUCACGUCUCAAUCAACUCUACUCCAGGAGUUUCCUCCUGCUUACUCAACAGCUCGCAGUCAAG	0.0902
GGUCACGUCUCAAUCAACUCAGUCCCAGGAGUUUCCUCCUGCUUUUUCAACAGCUCGCAGUCAAG	0.019
GGUCACGUCUCAAUCAACUCAAUUCCAGGAGUUUCCUCCUGCAUAGUCAACAGCUCGCAGUCAAG	0.114
GGUCACGUCUCAAUCAACUCAUCGUCAGGAGUUUCCUCCUGUAAUCUCAACAGCUCGCAGUCAAG	0.211
GGUCACGUCUCAAUCAACUCUAGGUCAGGAGUUUUCUCCUGUUAAUUCAACAGCUCGCAGUCAAG	-0.0176
GGUCACGUCUCAAUCAACUCUUUCGAGGGGGGGAAAACCCCUUUGCCCUCAAUAUCAACAGCUCGCAGUCAAG	0.246
GGUCACGUCUCAAUCAACUCACUAGAGGGGGGGAAAACCCCUUUGCCCUCAUUCUCAACAGCUCGCAGUCAAG	0.144
GGUCACGUCUCAAUCAACUCUAAAGAGGGGGGGAAAACCCCUUUACCCUCACAUUCAACAGCUCGCAGUCAAG	0.0871
GGUCACGUCUCAAUCAACUCAGUCUCAGGAGUUUUCUCCUGCAUUUUCAACAGCUCGCAGUCAAG	0.0197
GGUCACGUCUCAAUCAACUCUCACGAGGGGGGGAAAACCCCUUUGCCCUCAAUCUCAACAGCUCGCAGUCAAG	-0.237
GGUCACGUCUCAAUCAACUCUUACGAGGGGGGGAAAACCCCUUUACCCUCACAAUCAACAGCUCGCAGUCAAG	-0.0584
GGUCACGUCUCAAUCAACUCUUCCCCCAGGGAAAACCCUGGUAUACUCAACAGCUCGCAGUCAAG	0.14
GGUCACGUCUCAAUCAACUCAGUUCCAGGAGUUUUCUCCUGUAUAUUCAACAGCUCGCAGUCAAG	0.00536
GGUCACGUCUCAAUCAACUCUUUAGAGGGGGGGAAAACCCCUUUACCCUCAUCGUCAACAGCUCGCAGUCAAG	-0.0294
GGUCACGUCUCAAUCAACUCCUUAGAGGGGGGGAAAACCCCUUUACCCUCAUUCUCAACAGCUCGCAGUCAAG	0.132
GGUCACGUCUCAAUCAACUCAUUCUCCAGGGAAACCCCUGGCUUAGUCAACAGCUCGCAGUCAAG	0.168
GGUCACGUCUCAAUCAACUCCCAAGAGGGGGGGAAAACCCCUUUACCCUCACUCUCAACAGCUCGCAGUCAAG	0.558
GGUCACGUCUCAAUCAACUCAAUUUCCAGGGAAACCCCUGGUUUUUUCAACAGCUCGCAGUCAAG	-0.255

Sequence	binding signal (log2 fold change)
GGUCACGUCUCAAUCAACUCUAUUUCAGGAGUUUCCUCCUGUAUUUUCAACAGCUCGCAGUCAAG	0.0431
GGUCACGUCUCAAUCAACUCAUCCCCAGGAGUUUGCUCCUGCUAAUUCAACAGCUCGCAGUCAAG	0.209
GGUCACGUCUCAAUCAACUCAUCCUCAGGAGUUUGCUCCUGCUAUCUCAACAGCUCGCAGUCAAG	0.253
GGUCACGUCUCAAUCAACUCAAUCCCAGGAGUUUACUCCUGUAAUUUCAACAGCUCGCAGUCAAG	-0.0558
GGUCACGUCUCAAUCAACUCUUUUUCCAGGGAAAGCCCUGGUAUUUUCAACAGCUCGCAGUCAAG	-0.208
GGUCACGUCUCAAUCAACUCUAUUUCCAGGGAAACCCCUGGUAUUUUCAACAGCUCGCAGUCAAG	0.0344
GGUCACGUCUCAAUCAACUCAACUCCAGGAGUUUACUCCUGCAAUCUCAACAGCUCGCAGUCAAG	0.032
GGUCACGUCUCAAUCAACUCAUUUUCAGGAGUUUUCUCCUGCGUAUUCAACAGCUCGCAGUCAAG	-0.0937
GGUCACGUCUCAAUCAACUCUAUCCCCAGGGAAAGCCCUGGCUAAUUCAACAGCUCGCAGUCAAG	0.095
GGUCACGUCUCAAUCAACUCUCUAGAGGGGGGGAAAACCCCUUUUCCCUCAUUAUCAACAGCUCGCAGUCAAG	-0.00703
GGUCACGUCUCAAUCAACUCAAUCUCAGGAGUUUACUCCUGUAUAUUCAACAGCUCGCAGUCAAG	0.0383
GGUCACGUCUCAAUCAACUCAUUCUCCAGGGAAAUCCCUGGUAAUCUCAACAGCUCGCAGUCAAG	-0.119
GGUCACGUCUCAAUCAACUCCCUAGAGGGGGGGAAAACCCCUUUACCCUCGUAUUCAACAGCUCGCAGUCAAG	-0.516
GGUCACGUCUCAAUCAACUCAUCGCCCAGGGAAACCCCUGGUAAUUUCAACAGCUCGCAGUCAAG	-0.0686
GGUCACGUCUCAAUCAACUCAUUUUCCAGGGAAACCCCUGGUUUUUUCAACAGCUCGCAGUCAAG	-0.31
GGUCACGUCUCAAUCAACUCAUCUUCAGGAGUUUCCUCCUGCUUAGUCAACAGCUCGCAGUCAAG	0.0723
GGUCACGUCUCAAUCAACUCUACUCCAGGAGUUUCCUCCUGCAUAUUCAACAGCUCGCAGUCAAG	0.0764
GGUCACGUCUCAAUCAACUCUACUUCAGGAGUUUUCUCCUGCAUUUUCAACAGCUCGCAGUCAAG	-0.0621
GGUCACGUCUCAAUCAACUCUAUCCCAGGAGUUUUCUCCUGCUUACUCAACAGCUCGCAGUCAAG	0.0337
GGUCACGUCUCAAUCAACUCUUAAGAGGGGGGGAAAACCCCUUUACCCUCCAAUUCAACAGCUCGCAGUCAAG	-0.45
GGUCACGUCUCAAUCAACUCUACUUCAGGAGUUUACUCCUGUUUACUCAACAGCUCGCAGUCAAG	-0.0193
GGUCACGUCUCAAUCAACUCUAUCUCCAGGGAAAACCCUGGCAAACUCAACAGCUCGCAGUCAAG	-0.0127
GGUCACGUCUCAAUCAACUCAUUCCCAGGAGUUUUCUCCUGUUAAUUCAACAGCUCGCAGUCAAG	-0.138
